# Experimental data reported in the RNAGym collection of RNA variant scans (doi:10.1101/gad.245936.114).
# This sample is rich in variants without activity.
# B1: tRNA (parent)
# chain: CUCUCGGUAGCCAAGUUGGUUUAAGGCGCAAGACUUUAAUUUAUCACUACGAAAUCUUGAGAUCGGGCGUUCGACUCGCCCCCGGGAGAUUUUUUCCUCGAGCAA
# Variants of: B1
# Experiment: nonsense suppression (GFP-seq) (ratio to wild type); higher = more function; SUP4oc tRNA, yeast GFP reporter sort-seq
# Procedure, shortened: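 Nonsense suppression (GFPSEQ) is the median GFP/RFP ratio of each sorting bin, weighted by the variant's estimated share of cells in that bin and expressed relative to the unmutated parent tRNA. Yeast strains carried genome-integrated variants of an ochre-suppressor tRNA from a library with ~3% random mutations, plus a galactose-driven GFP ochre reporter and RFP, and were grown in raffinose/galactose medium containing 80 mg/L adenine. Cells were sorted into GFP/RFP bins, each bin was Illumina-sequenced (phred ≥30), and variants were kept only with ≥100 reads and ≥30 cells.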
row,Variant,nonsense suppression
1,AUCUCGGUCGCCAAGUUAGUUUAAGGCGCAAGAUUUUAAUUUAUCACUACGAAAUCUUGACAUCAGGCGUUCGACUCGCCCCCGGGAGAUUUUUUCCUCGAGCAA,≤ 0.026
2,AUCUCGGUCGCCAAGUCGGUUUAAGGCGCAAGACUUUAAUUUAUCACUACGAAAUCUGGAGAUCGGGCGUUCGACUCGCCCCCGGGAGAUUUUUUCCUCGAGCAA,≤ 0.026
3,AUCUCGGUGGCCAAGUUGGUUUAAGGCGCAGGACUUUAAUUUAUCACUACGAAAUCUUCAGAUCGGGCGUUCUACUCGCCCCCGGGAGAUUUUUUCCUCGAGCAA,≤ 0.026
4,AUCUCGGUUGCCAAAUUGGUUUAAGGCGCAAGAGUUUAAUUUAUCACUACGAAAUCUUGAGAGCGGGCGUUCGACUCGCCCCCGGGAGAUUUUUUCCUCGAGCAA,≤ 0.026
5,AUCUCGGUUGCCAAGUUGGUUUAAAGCGCAAUACUUUAAUUUAUCACUACGAAAUCUUGAGAUCGGGCGUUCGACUCGCCCCCGGGAGAUUUUUUCCUCGAGCAA,≤ 0.026
6,AUCUCGGUUGCCAAGUUGGAUUAAGGCGCAAGACUUUAAUUUAUCACUACGAAAUCUUGAGAUCGGGCGUUCAACUCGCCCCCGGGAGAUUUUUUCCUCGAGCAA,≤ 0.026
7,AUCUCGGUAGCCCAGUUGGUUUAAGGCGCAAGACUUUAAUUUAUCACUACGAAAUCUUGAGAUCGGGCGUUCGACUCGCCCCUGGGAGAUUUUUUCCUCGAGCAA,≤ 0.026
8,AUCUCGGUAGCCCAGUUGGUUUAAGGCGCAAGACUUUAAUUUAUCACUACGAAAUCUUGAGAUCGGGCCUUCGAAUCGCCCCCGGGAGAUUUUUUCCUCGAGCAA,≤ 0.026
9,AUCUCGGUAGCCCAGUUGGUGUAAUGCGUAAGACUUUAAUUUAUCACUACGAAAUCUUGAGAUCAGGCGUUCGACUCGCCCCCGUGAGAUUUUUUCCUCGAGCAA,≤ 0.026
10,AUCUCGGUAGCCACGUUGGUUUAAGGCGCAAGACAUUAAUUUAUCACUACGAAAUCUUGAGAUCGGGCGUUCGACUCGCCCCCGGGAGAUUUUUUCCUCGAGCAA,≤ 0.026
11,AUCUCGGUAGCCAUGUUGGUUUAAGGCGCAAGACUUUAAUUUAUCACUACGAAAUCUUGAGAUCGGGCGUUCGACUCGCCCCCGGGAGAUUUUUUCCUCGAGCAA,≤ 0.026
12,AUCUCGGUAGCCAUGUUGGUUUAAGGCGCAAGCCUUUAAUUUAUCACUACGAAAUCUUGAGAUCGGGCGUUCGACUCGACCCCGGGAGAUUUUUUCCUCGAGCAA,≤ 0.026
13,AUCUCGGUAGCCAUGUUGGUUUAAGGCGCAAGACUUUAAUUUAUCACUACGAAAUCUUGAGAUCGGGGGUUCGACUCGCCCCCGGGAGAUUUUUUCCUCGAGCAA,≤ 0.026
14,AUCUCGGUAGCCAAGUUGGUUUCAGGCGCAAGACUUUAAUUUAUCACUACGAAAUCUUGAGAUCGGGCGUUCGACUCGCCCCCGGGAGAUUUUUUCCUCGAGCAA,≤ 0.026
15,AUCUCGGUAGCCAAGUUGGUUUCAGGCGGGAGACUUUAAUUUAUCACUACGAAAUCUUGAGAUCGGGCGUUCGUCUCGCCCCCGGCAGAUUUUUUCCUCGAGCAA,≤ 0.026
16,AUCUCGGUAGCCAAGUUGGUUUGAGGCGCAAGAUUUUAAUUUAUCACUACGAAAUCUUGAGAUCGGGCGUUCGACUCGCCCCCGGGAGAUUUUUUCCUCGAGCAA,≤ 0.026
17,AUCUCGGUAGCCAAGUUGGUUUGAGGCGCAAGACUUUAAUUUAUCACUACGAAAUCUUUAGAUCGGGCGUUCGACUCGCCCACGGGAGAUUUUUUCCUCGAGCAA,≤ 0.026
18,AUCUCGGUAGCCAAGUUGGUUUUAGGCGCAAGGCUUUAAUUUAUCACUACGAAAACUUGAGAUCCGGCGUUCGACUCGCCCCCGGGAGAUUUUUUCCUCGAGCAA,≤ 0.026
19,AUCUCGGUAGCCAAGUUGGUUUAGGGCGCUAGACUUUAAUUUAUCACUACGAAAUCUUGAGCUCGGGCGUUCGACUCGCCCCCGGGAGAUUUUUUCCUCGAGCAA,≤ 0.026
20,AUCUCGGUAGCCAAGUUGGUUUAUGGCUCAAGACUUUAAUUUAUCACUACGAAAUCUUGAGAUCGGGCGUUCGACUCGCACCCGAGAGAUUUUUUCCUCGAGCAA,≤ 0.026
21,AUCUCGGUAGCCAAGUUGGUUUAAGGCGCCAGACUUUAAUUUAUCACUACGAAAUCUUGAGAUCGGGCGUUCGACUCGCCCCCGGGAGAUUUUUUCCUCGAGCAA,≤ 0.026
22,AUCUCGGUAGCCAAGUUGGUUUAAGGCGCGAGACUUUAAUUUAUCACUACGAAAUCUUGAGAUCGGGCGUUCGACUCGCCCCCGAGAGAUUUUUUCCUCGAGCAA,0.0742
23,AUCUCGGUAGCCAAGUUGGUUUAAGGCGCAGGACUUUAAUUUAUCACUACGAAAUCUUGAGAUCGGGCGUUCGACUCGCCCCCGGGAGAUUUUUUCCUCGAGCAA,≤ 0.026
24,AUCUCGGUAGCCAAGUUGGUUUAAGGCGCAGGAAUUUAAUUUAUCACUACGAAACCUUGAGAUCGGGCGUUCGACUCGCCCCGGGGAGAUUUUUUCCUCGAGCAA,≤ 0.026
25,AUCUCGGUAGCCAAGUUGGUUUAAGGCGCAGGACUUUAAUUUAUCACUACGAAAUCUUGAGAUCGGGCGUUCGACUCGCCCCCGGAAGAUUUUUUCCUCGAGCAA,≤ 0.026
26,AUCUCGGUAGCCAAGUUGGUUUAAGGCGCAUGCCUUUAAUUUAUCACUACGAAAUCUUGAGAUCGGGCGUUCGACUCGCCCCCGGGAGAUUUUUUCCUCGAGCAA,≤ 0.026
27,AUCUCGGUAGCCAAGUUGGUUUAAGGCGCAUGACUUUAAUUUAUCACUACGAAUUCUUGAGAUCGGGCGUUCGACUCGCCCCCGGGAGAUUUUUUCCUCGAGCAA,≤ 0.026

row,Variant,nonsense suppression
1,AUCUCGGUAGCCAAGUUGGUUUAAGGCGCAUGACUUUAAUUUAUCACUACGAAAUCUUGAGAUCGGGCGUUCGACUCGCCCCCAGGAAAUUUUUUCCUCGAGCAA,≤ 0.026
2,AUCUCGGUAGCCAAGUUGGUUUAAGGCGCAUGACUUUAAUUUAUCACUACGAAAGCUUGAUAUCGCGCGUUCGACUCGCCCCCGGGAGAUUUUUUCCUCGAGCAA,≤ 0.026
3,AUCUCGGUAGCCAAGUUGGUUUAAGGCGCAAGCCUUUAAUUUAUCACUACGAAAUCUUGAGAUCGGGCGUUCGACUCGCCCCCGGGAUAUUUUUUCCUCGAGCAA,≤ 0.026
4,AUCUCGGUAGCCAAGUUGGUUUAAGGCGCAAGUCUUUAAUUUAUCACUACGAAAUCUUGAGAUCGGGUGUUCGACUCGCCCCCGGGAGAUUUUUUCCUCGAGCAA,≤ 0.026
5,AUCUCGGUAGCCAAGUUGGUUUAAGGCGCAAGACUUUAAUUUAUCACUACGAAGUCUUGAGUUCGGGCGUUCGACUCGCCCCCGGGAGAUUUUUUCCUCGAGCAA,≤ 0.026
6,AUCUCGGUAGCCAAGUUGGUUUAAGGCGCAAGACUUUAAUUUAUCACUACGAAAUCUUGCGAUCGGGCGUUCGAUUCGCCCCCGGGAGAUUUUUUCCUCGAGCAA,≤ 0.026
7,AUCUCGGUAGCCAAGUUGGUUUAAGGCGCAAGACUUUAAUUUAUCACUACGAAAUCUUGUGAUCGGGCGUUCGACUCGCCCCCGGGAGAUUUUUUCCUCGAGCAA,≤ 0.026
8,AUCUCGGUAGCCAAGUUGGUUUAAGGCGCAAGACUUUAAUUUAUCACUACGAAAUCUUGUGAUCGGGCGUUCGACUCGCCCCCGGGAUAUUUUUUCCUCGAGCAA,≤ 0.026
9,AUCUCGGUAGCCAAGUUGGUUUAAGGCGCAAGACUUUAAUUUAUCACUACGAAAUCUUGAGGUCGGGCGUUCGACUCGCCCCCGGGAGAUUUUUUCCUCGAGCAA,≤ 0.026
10,AUAUCGGAAGCCAAGUUGGUUUAAGGCGCAAGACUUUAAUUUAUCACUACGAAAUCUUGAGAUCGGGCGUUCGACUCGCCCCCGGGAAAUUUUUUCCUCGAGCAA,≤ 0.026
11,AUGUCGGUAGCCAAGUUGGUUUAAGGCGCAAGACUUUAAUUUAUCACUACGAAAUCUAGAGAUCGGGGGUUCGACUCGCCCCCGGGAGAUUUUUUCCUCGAGCAA,≤ 0.026
12,AUUUCGGUAGCCAAGUUGGUUUAAGGCGCAAGACUUUAAUUUAUCACUACGAAAUUUUGAGAUCGGGCGUUCGACUCGCCCCCGGGAGAUUUUUUCCUCGAGCAA,≤ 0.026
13,AUUUCGGUAGCCAAGUAGGUUUAAGGGGCAAGACUUUAAUUUAUCACUACGAAAUCUUUAGAUCGGGCGUUCGACUCGCCCCCGGGAGAUUUUUUCCUCGAGCAA,≤ 0.026
14,AUCUAGGUAGCCAAGUUGGUUUAAGGCGCAAGACUUUAAUUUAUCACUACGAAAUCUUGAGAUCGGGCGUUCGACUCGCCCCCGGGAGAUUUUUUCCUCGAGCAA,≤ 0.026
15,AUCUGGGUAGCCAUGUUGUUUUAAGGCGCAAGACUUUAAUUUAUCACUACGAAAUCUUGAAAUCGGGCGCUCGACUCGCCCCCGGGAGAUUUUUUCCUCGAGCAA,≤ 0.026
16,AUCUUGGUAGCCAAGUAGGUUUAAGGCGCAAGACUUUAAUUUAUCACUACGAAAACUUGAGAUCGGGCGUUCGACUCGCCCCCGGGAGAUUUUUUCCUCGAGCAA,≤ 0.026
17,AUCUUGGUAGCCAAGUUGGUUUAAGGCGCAAGACUUUAAUUUAUCACUACGAAAUCUUGAGAUCGGGCGAUCGACGCGCCCCCGGGAGAUUUUUUCCUCGAGCAA,≤ 0.026
18,AUCUCGGUAGACAAGUUGGUUUAAGGCGCAAGACUUUAAUUUAUCACUACGAAAUCUCGAGAUCGGACGUACGACUCGCCCCCGGGAGAUUUUUUCCUCGAGCAA,≤ 0.026
19,AUCUCGGUAGGCAAGUUGGUUUAAGGCGCAAAACUUUAAUUUAUCACUACGAAACCUUGAGAUCGGGCGUUCGACUCGCCCCCGGGAGAUUUUUUCCUCGAGCAA,≤ 0.026
20,AUCUCGGUAGGCAAGUUGGUACAAGGCGCAAGACUUUAAUUUAUCACUACGAAAUCUUGAGAUCGGGCGUUCGACUCGCCCCCGGGAGAUUUUUUCCUCGAGCAA,≤ 0.026
21,AUCUCGGUAGUCAAGUUGGUUUAAGGCGCAAGACUUUAAUUUAUCACUACGAAAUCUUGAGAUCGGGCAUUCGACUCGCCCCCGGGAGCUUUUUUCCUCGAGCAA,≤ 0.026
22,AUCUCGGUAGCUCAGUUGGUUGAAGGCGCAAGACUUUAAUUUAUCACUACGAAACCUUGAGACCGGGCGUUCGACUCGCCCCCGGGAGAUUUUUUCCUCGAGCAA,≤ 0.026
23,AUCUCGGUAGCCAAGUUGGUUUAAGGGGCAAGACUUUAAUUUAUCACUACGAAAUCUUGAAAUCGGGGGUUCGACUCACCCCCGGGAGAUUUUUUCCUCGAGCAA,≤ 0.026
24,AUCUCGGUAGCCAAGUUGGUUUAAGGCGAAAGACUUUAAUUUAUCACUACGAAAUCUUGAGAUCGGGCGUUCGACUCGCCCCCGGGAGAUUUUUUCCUCGAGCAA,≤ 0.026
25,AUCUCGGUAGCCAAGUUGGUUUAAGGCGGAAGACUUUAAUUUAUCACUACGAAAUCUUGAGAUCGGGCGUUCGACUCGCCCCCGGGAGAUUUUUUCCUCGAGCAA,≤ 0.026
26,AUCUCGGUAGCCAAGUUGGUUUAAGGCGGAAGACUUUAAUUUAUCACUACGAAAUCUUGAUAUCGGGCGUUCGAAUCGCCCCCGGGAGAUUUUUUCCUCGAGCAA,≤ 0.026
27,AUCUCGGUAGCCAAGUUGGUUUAAGGCGCAAGAAUUUAAUUUAUCACUACGAAAUCUUGAGAUCGGGCAUUCGACUCGCCCCCGGGAGAUUUUUUCCUCGAGCAA,≤ 0.026
